{"source": "paper PMC4627809", "about": "“Client Proteins and Small Molecule Inhibitors Display Distinct Binding Preferences for Constitutive and Stress-Induced HSP90 Isoforms and Their Conformationally Restricted Mutants” (PLoS ONE, 2015)", "binders": {"B1": {"name": "NL-HIF1α (natural protein)", "chain": "not shown", "notes": "hypoxia inducible factor 1α (HIF1α); also called HIF1α fused to NanoLuc luciferase; source: HEK293, transfected, in lysate; not shown: NanoLuc luciferase, N-terminal, kept"}}, "biological_target": "T1, FLAG-HSP90α wild type (human, UniProt P07900 1-732)", "T1 construct": "HSP90α, stress-inducible cytosolic HSP90 isoform, encoded by HSP90AA1, human; The plasmid list names only pcDNA3-FLAG-HSP90α; the LUMIER methods call the protein 3XFLAG-tagged; also called HSP90α WT; 3XFLAG-HSP90α; source: HEK293, transfected, in lysate", "test": "LUMIER; HEK293 in 96-well plates co-transfected with NanoLuc-client and 3XFLAG-HSP90α or β; TGNET lysate on anti-FLAG antibody-coated plate 2 h at 4°C; NanoLuc read-out divided by anti-FLAG-HRP read-out = relative interaction strength", "conditions": "partners not purified"}
{"binder": "B1", "values": [{"measurement": "fold difference in relative interaction strength, HSP90α against HSP90β", "result": "> 3", "unit": "fold"}]}
